{"source": "PubChem BioAssay AID485364", "about": "(National Center for Advancing Translational Sciences (NCATS), 2010)", "note": "In all, about 360,000 compounds went through this assay and about 11,000 (3.1%) were called active. The shares of active, inactive and inconclusive entries below differ from those in the screen. Calls come from the whole dose curve; as a rule, active = well fitted inhibition curve with a large enough effect; inconclusive = small, poorly fitted or top-dose-only effect; inactive = no such curve, though single readings can be large or run the other way. Potencies of inconclusive entries are left out as doubtful fits. Potency is the fitted concentration of half-maximal effect; tags give direction and shape of the fitted curve."}
{"biological_target": "Schistosoma mansoni thioredoxin glutathione reductase (TGR) (UniProt Q962Y6)", "experiment": "qHTS Assay for the Inhibitors of Schistosoma Mansoni Peroxiredoxins; note: nearly all actives have a fitted effect of over 60% in size", "conditions": "purified TGR, DTNB reduction, TNB absorbance 405 nm; series mostly up to 114 µM", "excerpt": "Schistosomiasis is a major neglected tropical disease that currently affects over 200 million. It is caused by different species of flatworms, such as Schistosoma mansoni. Over the last century, drugs to treat the disease have evolved from potassium antimonyl tartrate, artemisinin, oxamniquine, to praziquantel, with praziquantel remaining the universally-used single drug of choice over the past three decades. However, transmission rates have changed little with praziquantel, and there is evidence for the development of drug resistant parasites. Because there is currently no suitable alternative therapy available, there is an urgent need to identify new targets and drugs for schistosomiasis treatment. Thioredoxin glutathione reductase (TGR), one uniquely positioned S. mansoni enzyme, has been identified as a major component of the worms' distinct and compressed antioxidant \"firewall\". TGR is a multifunctional enzyme that catalyzes the interconversion between reduced and oxidized forms of both glutathione (GSH) and thioredoxins, thus making it an attractive new antiparasitic target. Recently, a quantitative high-throughput screen of the NIH Molecular Libraries Small Molecule Repository (MLSMR, ~71K at the time of the screen in 2007) was performed using an assay that targeted both TGR and peroxiredoxin2 (Prx2, an H2O2-reducing enzymatic component of the S. mansoni redox \"firewall\") by following the decrease of NADPH fluorescence. […] Additional mechanistic link between exogenous NO donation and parasitic injury for the oxadiazole-2-oxide class of compounds was also expanded and better defined. Although the screen addressed both TGR and Prx2, the assay required post-screen target deconvolution for further characterization of the actives. In addition, the fluorescence assay was also subject to fluorescence interference from compound library members. We have developed a 1536-well-based kinetic HTS assay to address TGR alone. The assay followed the reduction of 5, 5'-dithiobis (2-nitrobenzoic acid) (DTNB) (Ellman's reagent) by NADPH and measured the increase in absorbance at 412 nm of the reaction product, TNB. […] This assay format can be used to screen the current MLSMR collection (with >300K compounds available) to find novel TGR inhibitors. Furoxan is a good choice to serve as a positive control in the primary HTS assay.\nThree microliters of reagents (100 uM NADPH and 20 nM TGR or 100 uM NADPH as no-enzyme control) were dispensed into 1,536-well black clear-bottomed plates. Compounds (23 nL) were transferred via Kalypsys pin tool equipped with 1536-pin array (10 nL slotted pins, V&P Scientific, San Diego, CA). The plates were then be incubated for 15 min at room temperature, and 1 uL aliquot of 500 uM NADPH were added, immediately followed by a 1 uL aliquot of 15 mM DTNB to start the reaction. The plate was transferred to a ViewLux high-throughput CCD imager (Perkin-Elmer, Wellesley, MA) where kinetic measurements of the TNB absorbance were acquired using a 405 excitation filter. Throughout the screen, reagent bottles and all liquid lines were made light-tight to minimize reagent degradation. All screening operations were performed on a fully integrated robotic system (Kalypsys, San Diego, CA) containing one RX-130 and two RX-90 anthropomorphic robotic arms (Staubli, Duncan, SC). Library plates were screened starting from the lowest and proceeding to the highest concentration, and a \"double-dipping\" step of the highest concentration was required to access higher concentrations of compounds. Vehicle-only plates, with DMSO being pin-transferred to the entire column 5-48 compound area, were inserted uniformly at the beginning and the end of each library in order to monitor for and record any shifts in the background, which can be affected by reagent dispensers or loss in enzyme activity overtime. […]"}
{"smiles": "COC(=O)c1c(C)[nH]c(/C=N/Nc2ccccc2)c1C", "Potency": "inconclusive [inhibitor, partial curve]"}
{"smiles": "COc1cccc(-c2c(NC(=O)c3ccco3)n(-c3ccc(C)cc3)nc(C)c2=O)c1", "Potency": "active: 79.4 µM"}
{"smiles": "NS(=O)(=O)c1ccc(N/N=C/c2ccc(O)c(O)c2O)c([N+](=O)[O-])c1", "Potency": "inconclusive [inhibitor, full curve]"}
{"smiles": "CN(CC(=O)Nc1ccccc1Cl)C(=O)c1ccc(-c2cccc(C(F)(F)F)c2)o1", "Potency": "inconclusive [inhibitor, partial curve]"}
{"smiles": "Cc1ccn(CCC(=O)NC2CC(C)(C)Cc3c2cnn3-c2ccccc2C)n1", "note": "(centres undefined)", "Potency": "inconclusive [inhibitor, full curve, poor fit]"}
{"smiles": "Cc1ccc(C(=O)CSC2=C(C#N)C(c3ccco3)CC(=O)N2)c(C)c1", "note": "(centres undefined)", "Potency": "inconclusive [inhibitor, partial curve]"}
{"smiles": "COC(=O)N/N=C(C)\\C=C\\c1ccco1", "Potency": "active: 44.7 µM"}
{"smiles": "O=C(CSc1nnnn1-c1ccccc1)c1cc2ccccc2oc1=O", "Potency": "inconclusive [inhibitor, partial curve]"}
{"smiles": "Cc1c(O)ccc(C(=O)CN2CC(C)OC(C)C2)c1O", "note": "(centres undefined)", "Potency": "inconclusive [inhibitor, full curve, poor fit]"}
{"smiles": "COc1ccc(OCc2nn3c(-c4ccco4)nnc3s2)cc1", "Potency": "inconclusive [inhibitor, full curve, poor fit]"}
{"smiles": "COc1ccccc1C1C(C(=O)c2cc3ccccc3o2)=C(O)C(=O)N1CCN(C)C", "note": "(centres undefined)", "Potency": "inconclusive [inhibitor, partial curve]"}
{"smiles": "N#CCCCN1C(=O)C(=C(C#N)C#N)c2ccccc21", "Potency": "active: 2.51 µM"}
{"smiles": "CCCCCOc1ccc(/C=c2\\sc3ncnn3c2=O)cc1", "Potency": "inactive"}
{"smiles": "CN(C)CCC(=O)c1ccc(F)cc1", "Potency": "inconclusive [inhibitor, full curve, poor fit]"}
{"smiles": "CC1CCc2c(sc(NC(=S)NC(=O)c3ccccc3)c2C#N)C1", "note": "(centres undefined)", "Potency": "inconclusive [inhibitor, full curve, poor fit]"}
{"smiles": "CC1(C)CC=C(NNC(=O)c2cccnc2)C(=O)C1", "Potency": "inconclusive [inhibitor, partial curve]"}
{"smiles": "Cn1c(C(=O)N2CCN(C(=O)c3ccco3)CC2)cc2c(=O)n(C)c3ccccc3c21", "Potency": "inconclusive [inhibitor, partial curve]"}
{"smiles": "Cc1ccc(-n2ncc3c(NCc4ccco4)ncnc32)c(C)c1", "Potency": "active: 39.8 µM"}
{"smiles": "Cc1cccc(NC(=O)/C(C#N)=C/c2ccco2)c1", "Potency": "inactive"}
